# Measured values as given in PubChem BioAssay AID1347165 (National Center for Advancing Translational Sciences (NCATS), 2019).
# In all, about 220,000 compounds went through this assay and about 5,700 (2.6%) were called active. The inconclusive results got no clear call from the source; some entries with a clear call stand among them for comparison. Calls come from the whole dose curve; as a rule, active = well fitted inhibition curve with a large enough effect; inconclusive = small, poorly fitted or top-dose-only effect; inactive = no such curve, though single readings can be large or run the other way. Potencies of inconclusive entries are doubtful fits and often do not repeat.
# Molecular target: Lysine-specific demethylase 5B (Homo sapiens) (UniProt Q9UGL1)
# Test: Primary screen for KDM5B Histone Demethylases FDH-coupled qHTS; note: nearly all actives have a fitted effect of over 70% in size; for activity change, negative = inhibition: 0% is about no effect
# Settings: FDH-coupled NADH fluorescence (FDH is formaldehyde dehydrogenase); activity change, negative = inhibition: at 57.7 µM (top of the series) unless noted
# Summary of the method: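 Coupled FDH/NAD⁺ fluorescence readout. KDM5BΔAP 200 nM final; compound titration, 10 min RT preincubation; substrate mix 12.5 µM H3K4me3, 25 µM 2-OG, 50 µM Fe(II), 100 µM ascorbate, 0.25 mM NAD⁺, 0.25 U/mL FDH; ΔRFU over 30 min.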
# Potency is the fitted concentration of half-maximal effect; tags give direction and shape of the fitted curve.
# UniProt Q9UGL1, sequence (Q9UGL1 whole entry, looked up): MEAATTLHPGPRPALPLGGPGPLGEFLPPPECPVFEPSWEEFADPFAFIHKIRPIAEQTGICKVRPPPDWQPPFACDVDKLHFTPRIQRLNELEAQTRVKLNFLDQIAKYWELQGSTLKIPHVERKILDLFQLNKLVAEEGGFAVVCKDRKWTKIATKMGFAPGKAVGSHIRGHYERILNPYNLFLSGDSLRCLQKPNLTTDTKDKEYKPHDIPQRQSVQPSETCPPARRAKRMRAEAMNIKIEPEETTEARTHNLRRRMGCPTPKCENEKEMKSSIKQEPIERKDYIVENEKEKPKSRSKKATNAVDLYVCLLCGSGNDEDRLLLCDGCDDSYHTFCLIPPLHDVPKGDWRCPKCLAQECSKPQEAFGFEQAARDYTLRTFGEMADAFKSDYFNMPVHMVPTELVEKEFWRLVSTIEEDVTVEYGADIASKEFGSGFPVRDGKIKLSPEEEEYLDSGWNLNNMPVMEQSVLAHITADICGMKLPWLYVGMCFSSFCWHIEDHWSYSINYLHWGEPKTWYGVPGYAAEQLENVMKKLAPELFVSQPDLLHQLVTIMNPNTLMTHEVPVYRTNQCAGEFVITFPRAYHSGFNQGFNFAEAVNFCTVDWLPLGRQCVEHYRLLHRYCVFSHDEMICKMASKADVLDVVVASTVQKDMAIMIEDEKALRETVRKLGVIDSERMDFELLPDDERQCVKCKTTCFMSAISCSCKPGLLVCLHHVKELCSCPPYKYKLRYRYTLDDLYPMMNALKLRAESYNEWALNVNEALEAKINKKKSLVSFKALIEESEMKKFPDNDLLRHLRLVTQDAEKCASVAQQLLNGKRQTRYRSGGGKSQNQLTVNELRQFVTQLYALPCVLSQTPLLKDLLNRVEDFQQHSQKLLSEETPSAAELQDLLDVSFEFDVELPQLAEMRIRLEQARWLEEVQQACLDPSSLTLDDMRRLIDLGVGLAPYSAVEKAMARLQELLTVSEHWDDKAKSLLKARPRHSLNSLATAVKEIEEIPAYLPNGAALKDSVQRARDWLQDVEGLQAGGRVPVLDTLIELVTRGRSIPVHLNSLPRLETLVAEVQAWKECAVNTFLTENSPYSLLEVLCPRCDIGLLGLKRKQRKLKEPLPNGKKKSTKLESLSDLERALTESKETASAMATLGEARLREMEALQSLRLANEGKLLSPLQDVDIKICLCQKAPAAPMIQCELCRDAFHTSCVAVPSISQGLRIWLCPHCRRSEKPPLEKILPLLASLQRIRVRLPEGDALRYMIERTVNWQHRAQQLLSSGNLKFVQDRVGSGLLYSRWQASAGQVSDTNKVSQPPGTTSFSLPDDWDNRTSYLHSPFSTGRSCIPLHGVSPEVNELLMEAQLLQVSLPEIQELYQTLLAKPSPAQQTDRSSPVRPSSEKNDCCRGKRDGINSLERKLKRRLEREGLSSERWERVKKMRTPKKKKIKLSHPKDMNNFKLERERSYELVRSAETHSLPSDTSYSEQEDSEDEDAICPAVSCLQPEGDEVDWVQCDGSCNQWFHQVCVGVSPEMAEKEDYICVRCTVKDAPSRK
Compound,"activity change, negative = inhibition",Potency
NC(=O)c1cccc(-c2ncc3c(n2)OCCN(c2cccc(C(F)(F)F)c2)C3=O)c1,inactive: -19.4% [at 86.2 µM],–
Cc1cc(C)cc(C(=O)NC2CCN(C(=O)c3cc4c(=O)[nH]c(C)cn4n3)CC2)c1,inactive: 2.71%,–
O=C(CN1CCN(C(=O)CCNS(=O)(=O)c2ccc3ccccc3c2)CC1)Nc1cccc(F)c1,inactive: -9.01%,–
O=C(Nc1nc2ccccc2s1)c1ccc(S(=O)(=O)N2CCCC2)cc1,–,"inconclusive: 20 µM [inhibitor, partial curve, poor fit]"
CC(C)(C)c1ccc(/C=C2/SC(N3CCCC3)=NC2=O)cc1,–,"inconclusive: 14.1 µM [inhibitor, partial curve, poor fit]"
O=C(Cn1ncc2c3ccccc3n(Cc3cccc(Cl)c3)c2c1=O)NCc1cccs1,–,"inconclusive: 44.7 µM [inhibitor, single point]"
CCn1c(SCc2nc(N)nc(Nc3ccccc3)n2)nnc1C1CC1,inactive: -6.37%,–
CC(Cc1cnccn1)Nc1ccc(-c2nc(-c3cccc(Cl)c3)no2)cn1 (centres undefined),–,"inconclusive: 28.2 µM [inhibitor, partial curve]"
NC(=O)C1Cc2ccccc2CN1C(=O)CCc1nc2ccccc2[nH]c1=O (centres undefined),–,"inconclusive: 25.1 µM [inhibitor, partial curve, poor fit]"
COc1ccc(-c2nn(-c3ccccc3)cc2C2CC(c3cccs3)=NN2C(=O)CCC(=O)O)cc1 (centres undefined),–,"inconclusive: 39.8 µM [inhibitor, partial curve, poor fit]"
NC(=O)NCC(=O)N1CCc2onc(-c3cccc4ccccc34)c2C1,–,"inconclusive: 31.6 µM [inhibitor, partial curve, poor fit]"
COC(=O)c1ccc(NC(=O)c2ccc3nc(-n4cccc4)sc3c2)cc1,–,"inconclusive: 39.8 µM [inhibitor, partial curve, poor fit]"
CCCCN(C)S(=O)(=O)c1ccc(C(=O)Nc2sc3c(c2C(N)=O)CC(C)(C)NC3(C)C)cc1,–,"inconclusive: 44.7 µM [inhibitor, single point]"
CC(C)Cn1cc(NC(=O)NCC2CCN(Cc3cccc(Cl)c3)CC2)c2ccccc2c1=O,–,"inconclusive: 20 µM [inhibitor, partial curve, poor fit]"
CC(=O)c1sc(NCc2ccc(C)cc2)nc1C,–,"inconclusive: 31.6 µM [inhibitor, partial curve, poor fit]"
Cc1ccccc1C(=O)Nc1ccc(NC(=O)c2ccco2)cc1O,inactive: 18.5%,–
CC(=O)Nc1ccc(NC(=O)c2cc(-c3ccco3)nc3ccccc23)cc1,–,"inconclusive: 20 µM [inhibitor, single point]"
CCCOc1c(Cl)cc(/C=C/C(=O)c2ccc(O)c(OC)c2)cc1OC,inactive: -14.1%,–
COC(=O)c1ccc(NC(=O)C2CCN(c3oc(-c4ccco4)nc3C#N)CC2)cc1,–,"inconclusive: 2 µM [inhibitor, full curve, poor fit]"
C[C@H]1[C@@H]2[C@@H](O)C([C@H](C)C(=O)NCc3ccco3)CC[C@@]2(C)CC[C@@H]1NC(=O)c1ccccc1 (some centres undefined),inactive: -26.1%,–
Cc1ccc(-c2ccc3nnc(CNC(=O)c4ccccc4F)n3n2)cc1C,–,active: 28.2 µM
O=C(CCc1ccccc1)N1CCCN(c2cc(-c3ccc(Cl)cc3)[nH]n2)CC1,–,"inconclusive: 15.8 µM [inhibitor, partial curve, poor fit]"

Compound,"activity change, negative = inhibition",Potency
Cc1cc(C)c(CNC(=O)c2cc(-c3ccccc3O)cc3c2OCCN3C(C)C)c(=O)[nH]1,–,active: 25.1 µM
O=C(/C=C/c1ccccc1)N1CCC(C(=O)N2CCN(Cc3cccc(C(F)(F)F)c3)CC2)CC1,inactive: 17.3%,–
CCNC(=O)N1CCc2nc(N3CCN(C)CC3)sc2C1,–,"inconclusive: 15.8 µM [inhibitor, partial curve]"
CCC(OC)C(=O)N1CCN(c2nc(-c3ccccc3)nc3c2CCC3)CC1 (centres undefined),–,"inconclusive: 7.94 µM [inhibitor, partial curve, poor fit]"
COc1ccccc1OCCNc1nc(-c2cccnc2)nc2ccccc12,–,"inconclusive: 22.4 µM [inhibitor, single point]"
O=C(Nc1ccc2nc(SCC(=O)N3CCCC3)sc2c1)c1cccc(Br)c1,–,"inconclusive: 39.8 µM [inhibitor, single point]"
Cc1cc(C)c2ccc3nc(C)c(C)c3c2[nH]1,–,"inconclusive: 25.1 µM [inhibitor, partial curve, poor fit]"
COc1ccc(-c2ccc3c(c2)C(=O)N2CCN(C(=O)c4cnccn4)C[C@H]2C(=O)N3)cc1,–,"inconclusive: 25.1 µM [inhibitor, single point]"
Cc1ccc(NC(=O)CSc2n[nH]c(=O)c3cc(-c4ccco4)nn23)cc1F,–,"inconclusive: 39.8 µM [inhibitor, single point]"
Cc1ccc(NC(=O)CC2CCCN(c3cnn(CC4CC4)c(=O)c3)C2)cc1 (centres undefined),inactive: -5.43%,–
Cc1csc(NC(=O)c2occc2-c2ccccc2)n1,inactive: 2.99%,–
O=C(Nc1ccc(Oc2ccccc2)cc1)O[C@@H]1CO[C@H]2[C@@H]1OC[C@@H]2NC(=S)Nc1cccc2ccccc12,–,active: 31.6 µM
O=C(Cn1nc2c(cc1=O)CCCCC2)NCCn1c(=O)c(=O)[nH]c2ccccc21,–,"inconclusive: 20 µM [inhibitor, partial curve, poor fit]"
Cc1noc(C)c1-c1cc(-c2cccc(F)c2)cn2cncc12,–,"inconclusive: 39.8 µM [inhibitor, partial curve, poor fit]"
CN(C)S(=O)(=O)N1CCCN(Cc2ccncc2)C(c2ccccc2)CC(=O)NCC1 (centres undefined),–,"inconclusive: 17.8 µM [inhibitor, partial curve, poor fit]"
CC(C)N(C)C1CCN(S(=O)(=O)c2ccc3[nH]c(=O)ccc3c2)CC1,–,"inconclusive: 31.6 µM [inhibitor, single point]"
CCC(=O)N1Cc2ccccc2CC2(CCCN2CC2CCOCC2)C1 (centres undefined),–,"inconclusive: 50.1 µM [inhibitor, partial curve, poor fit]"
O=C(Nc1nonc1-c1ccc2c(c1)CCCC2)c1cc(=O)c2ccc(Br)cc2o1,inactive: 9.91%,–
COc1cccc(CNC(=O)c2oc3c(c2C)-c2nn(Cc4cccc(Cl)c4)cc2CC3)c1OC,–,"inconclusive: 7.94 µM [inhibitor, partial curve, poor fit]"
Cc1nc2n(c1C(=O)N(C)C)CCN(C(=O)c1cc(=O)n(C)c(=O)n1C)C2,–,"inconclusive: 3.55 µM [inhibitor, partial curve, poor fit]"
Cc1noc(/C=C/c2nn(C)cc2Cl)c1[N+](=O)[O-],–,"inconclusive: 22.4 µM [inhibitor, single point]"
Cc1cc(C)c(NC(=O)CCc2ncc(-c3ccccc3)o2)c(C)c1,inactive: 10.7%,–

Compound,"activity change, negative = inhibition",Potency
CC(C)CCn1c(=O)c2sccc2n2c(CCCC(=O)NCCc3ccccc3)nnc12,–,"inconclusive: 28.2 µM [inhibitor, partial curve, poor fit]"
c1ccc(C(CNCc2ccncc2)N2CCCC2)cc1 (centres undefined),–,"inconclusive: 14.1 µM [inhibitor, partial curve, poor fit]"
COc1ccc(-c2nc(CN3CCN(C(=O)Nc4ccccc4OC)CC3)c(C)o2)cc1,inactive: 18.4%,–
COCCCNc1nc2c(-c3cccc(C)c3)nnn2c2ccc(Cl)cc12,–,"inconclusive: 25.1 µM [inhibitor, partial curve, poor fit]"
O=C(NC[C@H]1Cn2c(-c3ccc4c(c3)OCO4)cnc2CO1)c1ccc2c(c1)OCO2,–,"inconclusive: 35.5 µM [inhibitor, single point]"
COc1ccc(C(=O)/C(=C/c2ccco2)c2nc3ccccc3o2)cc1,inactive: -27.6%,–
CCc1ccc2c(c1)NC(c1ccc(C)o1)=NC(c1ccc(F)cc1)=N2,inactive: -18%,–
COCCCNC(=O)c1cc(C2CC2)nc2onc(C3CCCNC3)c12 (centres undefined),–,"inconclusive: 56.2 µM [inhibitor, partial curve, poor fit]"
CCNC(=O)C1C(c2cccc(NC(=O)c3cccc(C)c3)c2)OC(=O)N1Cc1cccc(Cl)c1 (centres undefined),–,"inconclusive: 39.8 µM [inhibitor, single point]"
Cc1cc(C)c(C#N)c(SCc2cc(=O)oc3cc(O)c(Cl)cc23)n1,–,"inconclusive: 14.1 µM [inhibitor, partial curve, poor fit]"
CCS(=O)(=O)Nc1cccc(C2=NN(S(C)(=O)=O)C(c3ccccc3C)C2)c1 (centres undefined),inactive: -12.8%,–
N#CCCN1CCN(c2ccc(NS(=O)(=O)c3ccccc3Cl)cc2C(=O)O)CC1,inactive: 0.821%,–
O=C(Cc1ccccc1)N1CCC(c2n[nH]c(=O)n2-c2ccccc2)CC1,inactive: 23.1%,–
CN(Cc1ccccc1)C(=O)c1cccc(Nc2cc(-c3ccccc3)ncn2)c1,–,"inconclusive: 35.5 µM [inhibitor, single point]"
COCC(=O)NC[C@H]1CCN(Cc2ccncc2)C[C@H]1N(C)C,–,"inconclusive: 17.8 µM [inhibitor, partial curve]"
COC(=O)c1ccc(COc2ccccc2OC)o1,inactive: -0.51%,–
O=C(c1ccnc(CC2CC(=O)N(c3ccccc3)C2)c1)N1CCCCC1 (centres undefined),inactive: 9.81%,–
CCCCN(CC)CCCNC(=O)Cn1ncc2c3ccccc3n(C)c2c1=O,–,"inconclusive: 7.94 µM [inhibitor, partial curve, poor fit]"
O=C(c1cccc(Oc2ccccc2)c1)N1CC[C@@]2(O)CCNC[C@H]2C1,inactive: 0.127%,–
CCN(CC)c1cc2c(cc1F)c(=O)c(S(=O)(=O)c1ccc(OC)cc1)cn2Cc1ccccc1,–,"inconclusive: 15.8 µM [inhibitor, partial curve, poor fit]"
